Laboratory results: the RNAGym collection of RNA variant scans (doi:10.7554/elife.90254)
The source gives no read counts; variants with many changes may rest on few reads.

B1: LINE1-mini (parent)
chain: GGCAGAGCUCAACACAGCGUGGCAAAGUGGCUGUGGCUAGACUGCC

Variants of: B1
Assay: self-cleavage, relative activity (ratio to wild type); higher = more cleavage; in vitro, sequencing; the parent is a self-cleaving ribozyme

Variant | self-cleavage
GGCAGGGCUCAACACAGCGUGGCAAAGUGGCUACGGCUAGACUGUG [A6G G33A U34C C45U C46G] | 0.01
GGCAGAGCUCAACACAGCGUGGCAAAGUGGCUGUGGCCAUACUUCG [U38C G40U G44U C46G] | 0.01
GGCAGAGCUCAACACAACGUGGCAAUGUGACUGUGGCUAGACUGCC [G17A A26U G30A] | 0.28
GGCAGAGCUCAAGACAGCAUGGCAAAGUGUCUGUGGCUAGACUGCC [C13G G19A G30U] | 0.03
GGCAGAGCUCAUCACAGCGGGGCAAAGUGGCUGUGGCUAGCCUGCC [A12U U20G A41C] | 0.03
GGCAGAGAUCAACCCAGCGUGGCAAAGUGCCUGUGGUUAGACUGCC [C8A A14C G30C C37U] | 0.03
GGCAGAGAUCAACACAGGGCGGCAAAGUUGCUGUGGCUAAACUGCC [C8A C18G U20C G29U G40A] | 0.03
GGCAGAGCUCACCACAGCGUGGCAAAAUGACUGUGGUUAGACUGCC [A12C G27A G30A C37U] | 0
GGCAGAGGUCAACACAGCGUGCCAAAUUGCCUGUGGCUAGACUACC [C8G G22C G27U G30C G44A] | 0.04
GGCAAAGCUCAGCACAGCGUGGCAAAGUGGGUGUGGCUAGACUGCC [G5A A12G C31G] | 0.04
GGCAUAGCUCAACACAGCGUGGCAAAGUCGCUGUGGCUACAUUGCC [G5U G29C G40C C42U] | 0.01
GGCCGAGCUCAAAACAGCGUGGCAAAGUGCCUGUGGCUUGACUGCC [A4C C13A G30C A39U] | 0.04
GCCACAGCUCAACACAGCGUGGCAAAGUCGCUGUGGCUAGACUGGC [G2C G5C G29C C45G] | 0.04
GGGAGAGCUCAGGACAGCGUGGCAAAGUGGCUGUGGCUAGGCUGCC [C3G A12G C13G A41G] | 0.06
GGCAAAGCUCAACACAGCGUGGCAAAGUGGGGGAGGCUAGACUGCC [G5A C31G U32G U34A] | 0.06
UGCUGAGCUCAACACAGCGUGGCAAAGUGGCUGUGUCUAGACUGCC [G1U A4U G36U] | 0.04
AACAGAGCUCAACACGGCGUGGCAAAGUGGCUGUGGCUAGACUGCC [G1A G2A A16G] | 0.24
GGGAGACCUCAACACAGCGUGGCAAAGUGGCCGUGGCUAGACUGGC [C3G G7C U32C C45G] | 0.03
GGUAGAGCUCGACACAGCUUGGCAAAGUGGCUUUGGCUAGACUGCC [C3U A11G G19U G33U] | 0.01

Variant | self-cleavage
GGCAGAGCUCCACACAGUGUGGCAACGUGGCUGUGGCUAGACAGCC [A11C C18U A26C U43A] | 0.02
GCUAGAGCUCAACACAGCGUGGCAAACUGGCUGUGGCUAGACUGCC [G2C C3U G27C] | 0.08
GGCAGAGCUCUACACAGCGUGGCAAAGUGGUUGUGGCGAGACUGCC [A11U C31U U38G] | 0
GGCAGCGCUCAACACAGCGUGGCAAAGUGGCUAUGGCUGGACUGCC [A6C G33A A39G] | 0.03
GGCAGAGCUCAACAUAGCGUGGCAAAGUGGCUUUAGCUAGACUGCC [C15U G33U G35A] | 0.11
GACAGAGCUCGACACAGCGUGGCAAAGUGGCUGUGGCUAGACUCCC [G2A A11G G44C] | 0.03
GCCAGAGCUCAACAGAGUGUGGCAAACUGGCUUUGGCUAGACUGCC [G2C C15G C18U G27C G33U] | 0.01
CGGAUAGCUCAACAUAGCGCGGCAAAGUGGCUGUGGCUCGACUGCC [G1C C3G G5U C15U U20C A39C] | 0.1
GGCAGAGCUCAAUACAGGGUGGCAAAGUGGCUGUGGCUAGAGUGCC [C13U C18G C42G] | 0.03
AGCAGUGCUCAACAUAGCGUGGAAAAGGGGCUGUAGCUAGACAGCC [G1A A6U C15U C23A U28G G35A U43A] | 0.16
GGCAGAGCUCAACAGAUCGUGGUAAAGUAGCUGUGUCUAGACUGCC [C15G G17U C23U G29A G36U] | 0.07
GGGAGUGCUCAACACAGCGUGGCAAAGUGGCGGUGGCUAGACUGCC [C3G A6U U32G] | 0.07
GGUGGAGCUCAACAUAUCGUGGCAAAGAUGCUGUGGCUAGACUGCC [C3U A4G C15U G17U U28A G29U] | 0.1
GGCAGAGCUCAACUCAGCGUGGCAAAGUGGCUCUGGCUAGCCUGCC [A14U G33C A41C] | 0.02
GCCAGAGCUUAACACAGGGUGGCGAAGUGGCUGUGGCUAGCCUGCC [G2C C10U C18G A24G A41C] | 0.01
GGUAGAGCUCAACACAGCGUGGGAUAAUGGCUGUGGCUAGACGGGC [C3U C23G A25U G27A U43G C45G] | 0.03
UGCAGAGCUCAACACAGCGUGGCAAAGUGGGUGUGACUAGACUGCC [G1U C31G G36A] | 0.08
GGCAGAGCUCAAUAAAGCGUGGCAAAAUGGCUGUGGCUAGACUGCA [C13U C15A G27A C46A] | 0.09
GGCAGAGCUCAACACAGCGUGACAAAGUGGCUGUGGCUAGCCUACC [G22A A41C G44A] | 0.09

Variant | self-cleavage
GGCAGGGCUCAACACAGCGUGGCAAAGUGGCUGUGGCUAGAGUUGC [A6G C42G G44U C45G] | 0
GGCAGAGCUCAACACAGCGUGGGAAAGUGGCUGUAGCUAGAAUGCC [C23G G35A C42A] | 0.03
GGCACAGCUCAACACAGCGGGGCAUAGUGGCUGUGGCUAGACUGCC [G5C U20G A25U] | 0.05
GGCAGAGCUCAACACAGCUUGGCAAAGUGGGUGUGACUAGACUGCC [G19U C31G G36A] | 0.07
GGCAGAGCUCAACACCGCGUGGCAAACUGGCUGUGGCUAGACUUCC [A16C G27C G44U] | 0.02
GGCAGAGCUCAACCCAGCGUGGAAAAGUGGCUGUGGUUAGAAUGCC [A14C C23A C37U C42A] | 0.02
GGUAGAGCUCAACACAGCGCGGCAAAGUGGCUGAAGCUAGACUGCC [C3U U20C U34A G35A] | 0.02
GGGAGAGCUCAACACAGCGUGGCAAAGUGUCUGUGGCUAGACUGGC [C3G G30U C45G] | 0.19
GGCAGAGGCCUACACAGCGUGGCUAACUGGCUGUGGCUAGACUGUC [C8G U9C A11U A24U G27C C45U] | 0.01
GGGAGAGCGCAACACAGCCUGGCAAAGUGGCUGUGGCUGGACUGCC [C3G U9G G19C A39G] | 0.03
GGCAGAGCGCAACACAGCGUGGCAUUGUGGCUGCGGCUAGACUGCC [U9G A25U A26U U34C] | 0.02
GGCAGAGCUCAACACAGCGUGGCAAAGCCGCUGUGGCUAAACUGCC [U28C G29C G40A] | 0.03
GGCUGAGCUUAACACAGCGUGGCAAAGUGGCUGUGGCUAAACUGCC [A4U C10U G40A] | 0.03
GGCAGAGCUCAACCCAGCGUAGCAAAGUGUCUGUGGCUAGACUUCC [A14C G21A G30U G44U] | 0
GGCAGAGCUCAACACAGCGUUGGAAAGUGACUGUGGCUAGACUGCC [G21U C23G G30A] | 1.26
GCCAGAGCUCAACACAGCGUGGCAAAGUGAUUGUGGCUAGAAUGCC [G2C G30A C31U C42A] | 0.7
GGCAGAGCUCAACACAGCGUGUCAAAGUGGCUGUGGCUAAACUGUC [G22U G40A C45U] | 0.08
GGCAGACCUCUAGACAGCGUGGCAAAGUGGCUGUGUCCAGACUGCC [G7C A11U C13G G36U U38C] | 0.02
